Source: the supplement of paper PMC11876631
± gives the standard deviation of the averaged measurements. Laboratory Escherichia coli strains with one amino-acid change in an essential protein, pooled on minimal glucose agar with carbenicillin or gentamicin at twice the control MIC (plus kanamycin and chloramphenicol for the plasmids), 48 h. Fold change of barcode share against drug-free plates; higher = less susceptible. Active = above 20 in both replicates (the paper's putatively resistant). '<' = one read or none on drug, '>' = one read or none on a drug-free plate. Shares are relative, so most strains fall below 1 when a few take over. Listed are strains with at least 15 reads on both drug-free plates, and hits; most hits rest on fewer reference reads. Replicate rank correlation about 0.5. Edits are read from barcodes.

B1: glmS V97D (protein)
chain: MCGIVGAIAQRDVAEILLEGLRRLEYRGYDSAGLAVVDAEGHMTRLRRLGKVQMLAQAAEEHPLHGGTGIAHTRWATHGEPSEVNAHPHVSEHIVVDHNGIIENHEPLREELKARGYTFVSETDTEVIAHLVNWELKQGGTLREAVLRAIPQLRGAYGTVIMDSRHPDTLLAARSGSPLVIGLGMGENFIASDQLALLPVTRRFIFLEEGDIAEITRRSVNIFDKTGAEVKRQDIESNLQYDAGDKGIYRHYMQKEIYEQPNAIKNTLTGRISHGQVDLSELGPNADELLSKVEHIQILACGTSYNSGMVSRYWFESLAGIPCDVEIASEFRYRKSAVRRNSLMITLSQSGETADTLAGLRLSKELGYLGSLAICNVPGSSLVRESDLALMTNAGTEIGVASTKAFTTQLTVLLMLVAKLSRLKGLDASIEHDIVHGLQALPSRIEQMLSQDKRIEALAEDFSDKHHALFLGRGDQYPIALEGALKLKEISYIHAEAYAAGELKHGPLALIDADMPVIVVAPNNELLEKLKSNIEEVRARGGQLYVFADQDAGFVSSDNMHIIEMPHVEEVIAPIFYTVPLQLLAYHVALIKGTDVDQPRNLAKSVTVE
B2: glmS V97P (protein)
chain: MCGIVGAIAQRDVAEILLEGLRRLEYRGYDSAGLAVVDAEGHMTRLRRLGKVQMLAQAAEEHPLHGGTGIAHTRWATHGEPSEVNAHPHVSEHIVVPHNGIIENHEPLREELKARGYTFVSETDTEVIAHLVNWELKQGGTLREAVLRAIPQLRGAYGTVIMDSRHPDTLLAARSGSPLVIGLGMGENFIASDQLALLPVTRRFIFLEEGDIAEITRRSVNIFDKTGAEVKRQDIESNLQYDAGDKGIYRHYMQKEIYEQPNAIKNTLTGRISHGQVDLSELGPNADELLSKVEHIQILACGTSYNSGMVSRYWFESLAGIPCDVEIASEFRYRKSAVRRNSLMITLSQSGETADTLAGLRLSKELGYLGSLAICNVPGSSLVRESDLALMTNAGTEIGVASTKAFTTQLTVLLMLVAKLSRLKGLDASIEHDIVHGLQALPSRIEQMLSQDKRIEALAEDFSDKHHALFLGRGDQYPIALEGALKLKEISYIHAEAYAAGELKHGPLALIDADMPVIVVAPNNELLEKLKSNIEEVRARGGQLYVFADQDAGFVSSDNMHIIEMPHVEEVIAPIFYTVPLQLLAYHVALIKGTDVDQPRNLAKSVTVE
B3: glmS V95A (protein)
chain: MCGIVGAIAQRDVAEILLEGLRRLEYRGYDSAGLAVVDAEGHMTRLRRLGKVQMLAQAAEEHPLHGGTGIAHTRWATHGEPSEVNAHPHVSEHIAVVHNGIIENHEPLREELKARGYTFVSETDTEVIAHLVNWELKQGGTLREAVLRAIPQLRGAYGTVIMDSRHPDTLLAARSGSPLVIGLGMGENFIASDQLALLPVTRRFIFLEEGDIAEITRRSVNIFDKTGAEVKRQDIESNLQYDAGDKGIYRHYMQKEIYEQPNAIKNTLTGRISHGQVDLSELGPNADELLSKVEHIQILACGTSYNSGMVSRYWFESLAGIPCDVEIASEFRYRKSAVRRNSLMITLSQSGETADTLAGLRLSKELGYLGSLAICNVPGSSLVRESDLALMTNAGTEIGVASTKAFTTQLTVLLMLVAKLSRLKGLDASIEHDIVHGLQALPSRIEQMLSQDKRIEALAEDFSDKHHALFLGRGDQYPIALEGALKLKEISYIHAEAYAAGELKHGPLALIDADMPVIVVAPNNELLEKLKSNIEEVRARGGQLYVFADQDAGFVSSDNMHIIEMPHVEEVIAPIFYTVPLQLLAYHVALIKGTDVDQPRNLAKSVTVE
B4: glmS V95W (protein)
chain: MCGIVGAIAQRDVAEILLEGLRRLEYRGYDSAGLAVVDAEGHMTRLRRLGKVQMLAQAAEEHPLHGGTGIAHTRWATHGEPSEVNAHPHVSEHIWVVHNGIIENHEPLREELKARGYTFVSETDTEVIAHLVNWELKQGGTLREAVLRAIPQLRGAYGTVIMDSRHPDTLLAARSGSPLVIGLGMGENFIASDQLALLPVTRRFIFLEEGDIAEITRRSVNIFDKTGAEVKRQDIESNLQYDAGDKGIYRHYMQKEIYEQPNAIKNTLTGRISHGQVDLSELGPNADELLSKVEHIQILACGTSYNSGMVSRYWFESLAGIPCDVEIASEFRYRKSAVRRNSLMITLSQSGETADTLAGLRLSKELGYLGSLAICNVPGSSLVRESDLALMTNAGTEIGVASTKAFTTQLTVLLMLVAKLSRLKGLDASIEHDIVHGLQALPSRIEQMLSQDKRIEALAEDFSDKHHALFLGRGDQYPIALEGALKLKEISYIHAEAYAAGELKHGPLALIDADMPVIVVAPNNELLEKLKSNIEEVRARGGQLYVFADQDAGFVSSDNMHIIEMPHVEEVIAPIFYTVPLQLLAYHVALIKGTDVDQPRNLAKSVTVE
B5: glmS V95Q (protein)
chain: MCGIVGAIAQRDVAEILLEGLRRLEYRGYDSAGLAVVDAEGHMTRLRRLGKVQMLAQAAEEHPLHGGTGIAHTRWATHGEPSEVNAHPHVSEHIQVVHNGIIENHEPLREELKARGYTFVSETDTEVIAHLVNWELKQGGTLREAVLRAIPQLRGAYGTVIMDSRHPDTLLAARSGSPLVIGLGMGENFIASDQLALLPVTRRFIFLEEGDIAEITRRSVNIFDKTGAEVKRQDIESNLQYDAGDKGIYRHYMQKEIYEQPNAIKNTLTGRISHGQVDLSELGPNADELLSKVEHIQILACGTSYNSGMVSRYWFESLAGIPCDVEIASEFRYRKSAVRRNSLMITLSQSGETADTLAGLRLSKELGYLGSLAICNVPGSSLVRESDLALMTNAGTEIGVASTKAFTTQLTVLLMLVAKLSRLKGLDASIEHDIVHGLQALPSRIEQMLSQDKRIEALAEDFSDKHHALFLGRGDQYPIALEGALKLKEISYIHAEAYAAGELKHGPLALIDADMPVIVVAPNNELLEKLKSNIEEVRARGGQLYVFADQDAGFVSSDNMHIIEMPHVEEVIAPIFYTVPLQLLAYHVALIKGTDVDQPRNLAKSVTVE
B6: glmS V95D (protein)
chain: MCGIVGAIAQRDVAEILLEGLRRLEYRGYDSAGLAVVDAEGHMTRLRRLGKVQMLAQAAEEHPLHGGTGIAHTRWATHGEPSEVNAHPHVSEHIDVVHNGIIENHEPLREELKARGYTFVSETDTEVIAHLVNWELKQGGTLREAVLRAIPQLRGAYGTVIMDSRHPDTLLAARSGSPLVIGLGMGENFIASDQLALLPVTRRFIFLEEGDIAEITRRSVNIFDKTGAEVKRQDIESNLQYDAGDKGIYRHYMQKEIYEQPNAIKNTLTGRISHGQVDLSELGPNADELLSKVEHIQILACGTSYNSGMVSRYWFESLAGIPCDVEIASEFRYRKSAVRRNSLMITLSQSGETADTLAGLRLSKELGYLGSLAICNVPGSSLVRESDLALMTNAGTEIGVASTKAFTTQLTVLLMLVAKLSRLKGLDASIEHDIVHGLQALPSRIEQMLSQDKRIEALAEDFSDKHHALFLGRGDQYPIALEGALKLKEISYIHAEAYAAGELKHGPLALIDADMPVIVVAPNNELLEKLKSNIEEVRARGGQLYVFADQDAGFVSSDNMHIIEMPHVEEVIAPIFYTVPLQLLAYHVALIKGTDVDQPRNLAKSVTVE
B7: glmS V95P (protein)
chain: MCGIVGAIAQRDVAEILLEGLRRLEYRGYDSAGLAVVDAEGHMTRLRRLGKVQMLAQAAEEHPLHGGTGIAHTRWATHGEPSEVNAHPHVSEHIPVVHNGIIENHEPLREELKARGYTFVSETDTEVIAHLVNWELKQGGTLREAVLRAIPQLRGAYGTVIMDSRHPDTLLAARSGSPLVIGLGMGENFIASDQLALLPVTRRFIFLEEGDIAEITRRSVNIFDKTGAEVKRQDIESNLQYDAGDKGIYRHYMQKEIYEQPNAIKNTLTGRISHGQVDLSELGPNADELLSKVEHIQILACGTSYNSGMVSRYWFESLAGIPCDVEIASEFRYRKSAVRRNSLMITLSQSGETADTLAGLRLSKELGYLGSLAICNVPGSSLVRESDLALMTNAGTEIGVASTKAFTTQLTVLLMLVAKLSRLKGLDASIEHDIVHGLQALPSRIEQMLSQDKRIEALAEDFSDKHHALFLGRGDQYPIALEGALKLKEISYIHAEAYAAGELKHGPLALIDADMPVIVVAPNNELLEKLKSNIEEVRARGGQLYVFADQDAGFVSSDNMHIIEMPHVEEVIAPIFYTVPLQLLAYHVALIKGTDVDQPRNLAKSVTVE
B8: glmS I181A (protein)
chain: MCGIVGAIAQRDVAEILLEGLRRLEYRGYDSAGLAVVDAEGHMTRLRRLGKVQMLAQAAEEHPLHGGTGIAHTRWATHGEPSEVNAHPHVSEHIVVVHNGIIENHEPLREELKARGYTFVSETDTEVIAHLVNWELKQGGTLREAVLRAIPQLRGAYGTVIMDSRHPDTLLAARSGSPLVAGLGMGENFIASDQLALLPVTRRFIFLEEGDIAEITRRSVNIFDKTGAEVKRQDIESNLQYDAGDKGIYRHYMQKEIYEQPNAIKNTLTGRISHGQVDLSELGPNADELLSKVEHIQILACGTSYNSGMVSRYWFESLAGIPCDVEIASEFRYRKSAVRRNSLMITLSQSGETADTLAGLRLSKELGYLGSLAICNVPGSSLVRESDLALMTNAGTEIGVASTKAFTTQLTVLLMLVAKLSRLKGLDASIEHDIVHGLQALPSRIEQMLSQDKRIEALAEDFSDKHHALFLGRGDQYPIALEGALKLKEISYIHAEAYAAGELKHGPLALIDADMPVIVVAPNNELLEKLKSNIEEVRARGGQLYVFADQDAGFVSSDNMHIIEMPHVEEVIAPIFYTVPLQLLAYHVALIKGTDVDQPRNLAKSVTVE
B9: glmS I181W (protein)
chain: MCGIVGAIAQRDVAEILLEGLRRLEYRGYDSAGLAVVDAEGHMTRLRRLGKVQMLAQAAEEHPLHGGTGIAHTRWATHGEPSEVNAHPHVSEHIVVVHNGIIENHEPLREELKARGYTFVSETDTEVIAHLVNWELKQGGTLREAVLRAIPQLRGAYGTVIMDSRHPDTLLAARSGSPLVWGLGMGENFIASDQLALLPVTRRFIFLEEGDIAEITRRSVNIFDKTGAEVKRQDIESNLQYDAGDKGIYRHYMQKEIYEQPNAIKNTLTGRISHGQVDLSELGPNADELLSKVEHIQILACGTSYNSGMVSRYWFESLAGIPCDVEIASEFRYRKSAVRRNSLMITLSQSGETADTLAGLRLSKELGYLGSLAICNVPGSSLVRESDLALMTNAGTEIGVASTKAFTTQLTVLLMLVAKLSRLKGLDASIEHDIVHGLQALPSRIEQMLSQDKRIEALAEDFSDKHHALFLGRGDQYPIALEGALKLKEISYIHAEAYAAGELKHGPLALIDADMPVIVVAPNNELLEKLKSNIEEVRARGGQLYVFADQDAGFVSSDNMHIIEMPHVEEVIAPIFYTVPLQLLAYHVALIKGTDVDQPRNLAKSVTVE

target: Escherichia coli (laboratory strain); assay: barcode share on antibiotic plates over drug-free plates; higher = less susceptible; conditions: antibiotic: carbenicillin; 2× MIC (3.1 µg/mL)
Method: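 A pool of E. coli strains, each edited to carry one amino-acid change in an essential protein, was grown for 48 h on minimal glucose agar with or without antibiotic; strain barcodes were sequenced; mean of two replicates.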

Row | Protein | fold change of barcode share
1 | B1 | 0.57 ± 0.46
2 | B2 | 0.541 ± 0.31
3 | B3 | 0.502 ± 0.16
4 | B4 | 0.394 ± 0.13
5 | B5 | 0.301 ± 0.086
6 | B6 | 0.207 ± 0.15
7 | B7 | 0.327 ± 0.049
8 | B8 | 0.57 ± 0.39
9 | B9 | 0.693 ± 0.56

same assay, conditions: antibiotic: gentamicin; 2× MIC (MIC 0.45 µg/mL)

Row | Protein | fold change of barcode share
10 | B1 | < 0.00386
11 | B2 | < 0.00337
12 | B3 | 0.00337 ± 8.9e-05
13 | B4 | 0.00367 ± 0.0015
14 | B5 | < 0.00185
15 | B6 | 0.0068 ± 0.0054
16 | B7 | 0.00586 ± 0.0065
17 | B8 | < 0.017
18 | B9 | 0.0106 ± 0.0084
